This note sets out measurements from the supplement of paper PMC10126150.

This data set has as its system ATP. Put plainly: switch fluorescence ratio, 500 uM ATP over buffer (Cy3 cluster intensity, sum of 5 cycles each) (fold (ratio)); higher = stronger signal-on switching upon ATP binding; sequences stand for … in TCGTCGGCAGCGTCAGATGTGTATAAGAGACAGTTTTTTTTTTTTTTTTTTTTTTTTT…TC. Particulars: aptamer strand: ATP DNA aptamer (quencher-CACCTGGGGGAGTATTGCGGAGGAAGG + anchor), 100 nM annealed; ATP concentration: 500 uM; one replicate. The essentials:
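Between each of five buffer/ATP cycles, the flow-cell was stripped with NaOH and re-annealed. Each cycle imaged Cy3-labelled switching-strand clusters, annealed to 100 nM quencher-labelled ATP aptamer on a modified Illumina MiSeq flow-cell, first in selection buffer and then after 15 min with 500 uM ATP at 22 °C. The fluorescence ratio is summed target-cycle over summed buffer-cycle Cy3 intensity per cluster, averaged per switch-domain sequence, with clusters outside 100-1000 RFU excluded.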

Sequences with one replicate were seen in a single cluster, so their values are uncertain.
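Further: ATP exposure 15 min at 22 °C before imaging.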

With TATTAATCGT, the switch fluorescence ratio turned out to be 0.983. TAGATAAAGA: the switch fluorescence ratio is 0.968. ATTGATTAGC: the switch fluorescence ratio was found to be 1. The figure for CAACTGCTCG is 1.04; for CGAAAGACAT it is 0.998; for GGTGATGCT it is 0.995. The figure for GTATATGTGG is 1.07; for AATATGCGGA it is 0.994; for CCTTTGGATG it is 1.02. Next, TTTTGATGT: 1.02; GTAAGAGCGA: 1.04.

As for CAGTTTTCAA, the switch fluorescence ratio is 0.966. Next, CCTCTTATTT: 1.04; CCGTTTCAGC: 0.979; TAAGTCGGTA: 1.01. Consider GTGAAACGAT, for which the switch fluorescence ratio turned out to be 0.965. Next, TCTCAGACCG: 0.98. The figure for GCAGTTTAAG is 0.99. The figure for TTAGCCGGAG is 0.991. As for TATGTAGTTA, the switch fluorescence ratio came to 1.08. For CCGATCGGAC, the switch fluorescence ratio turned out to be 1.11. Next, TTTGGAGTAG: 1; TGTAAAGATA: 0.99; TAACTTCGGA: 1.03. Turning to TCGGCTGCCA, the switch fluorescence ratio turned out to be 0.98.

Take TTCGGGACTT: the switch fluorescence ratio amounted to 1.02. The figure for TATATTACCG is 1.05; for TGCGTTACGA it is 1.04. Next, AATGTTTCCG: 0.995. Next, TTACTTTTTA: 0.994; TTTCTTACGT: 0.975; AGACGCCTGA: 0.977.

With AGCAAGTAAC, the switch fluorescence ratio turned out to be 1.95. TTCTCGCAAG: the switch fluorescence ratio came to 2.56. TTGAGAGTCC: the switch fluorescence ratio turned out to be 0.96. Next, GCAGTGGCGC: 1.02; CGGATTCATG: 1.03; TAGTCGAATT: 1.01. In the case of TGTCATGCTA, the switch fluorescence ratio turned out to be 1. Next, TTTCAGCGT: 0.948. Next, TCGGCTACC: 1.05. Turning to GACATGCGGG, the switch fluorescence ratio stood at 1.06. Next, CTGCGCATGG: 3.42; ATGCGTTGAA: 0.996. Next, AGTCCGCTCA: 2.01. As for TGCTTATCTC, the switch fluorescence ratio was 1.03. The figure for AAAGTAGAT is 1.04. Next, ATAGGATGTT: 0.981. Next, TTGTGGTTCG: 0.959; CCATCGGGAA: 1; GCAGCGTCTG: 0.996.

Regarding TAATCCCAAA, the switch fluorescence ratio was found to be 0.999. The figure for TAAATAAGGG is 0.981; for GACGATGTC it is 1.03; for CCTTTAGACG it is 0.999.

With GGACTAATTC, the switch fluorescence ratio was 1.05.

For the sequence GGTTCGAGGT, the switch fluorescence ratio was 0.999.

As to TAATGCTAG, the switch fluorescence ratio came out at 1.02. The figure for GTACGAAT is 0.993.

Take TGAGCCCCCG: the switch fluorescence ratio was found to be 1.01.

With GTCGACGCGC, the switch fluorescence ratio stood at 1.26. The figure for TCTCATATG is 1.04; for TTGAGAGATC it is 1.05; for CTCAAAGGTG it is 1.26. The figure for TCGGTTCATA is 1; for TTTAACTACG it is 1.07. The figure for AAACAAAGGT is 1.02; for GCTACCAGTG it is 1.26; for TGTTAGGACG it is 1.08. On to TTATCCCAAG, for which the switch fluorescence ratio amounted to 1.04. The figure for TTTACTAGCC is 1.03.

Consider TTTTGTCCGG, for which the switch fluorescence ratio was determined as 1.02. Consider GAGGGCGTCG, for which the switch fluorescence ratio turned out to be 1.03. Next, CTTAGACAAA: 0.927; AATCGCACAC: 2.14; CTGGGGGCAT: 1.06. Next, GATTGATTCT: 0.974; AAGGCAGCCA: 0.991. Next, GTTAGAGACG: 1.07.
